# Results as given in PubChem BioAssay AID686978 (National Center for Advancing Translational Sciences (NCATS), 2013).
# Hit rate of the full screen: of about 420,000 compounds, about 64,000 (15%) were called active. The shares of active, inactive and inconclusive entries below differ from those in the screen. Calls come from the whole dose curve; as a rule, active = well fitted inhibition curve with a large enough effect; inconclusive = small, poorly fitted or top-dose-only effect; inactive = flat fitted curve, though single readings scatter. Potencies of inconclusive entries are left out as doubtful fits.
# Test: qHTS for Inhibitors of human tyrosyl-DNA phosphodiesterase 1 (TDP1): qHTS in cells in absence of CPT; note: nearly all actives have a fitted effect of over 55% in size
# Conditions: DT40 Tdp1-/- hTDP1 cells, no CPT, ATP luminescence, 48 h; activity change, negative = growth inhibition: at 46.2 µM (top of the series) unless noted
# Summary of the method: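 Chicken DT40 Tdp1-/- cells stably complemented with human TDP1 were seeded at 400 cells/well with DMSO in place of 20 nM camptothecin. After compound pinning, cells grew at least 48 hr at 37 °C; viability read by CellTiter-Glo luminescence.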
# % is set by controls: 0 for no effect and ±100 for the full control effect; potency is the fitted concentration of half-maximal effect; tags give direction and shape of the fitted curve.
Structure (SMILES),Potency,"activity change, negative = growth inhibition"
O=C(COC(=O)c1ccc([N+](=O)[O-])s1)NC(c1ccccc1)c1ccccc1,"inconclusive [inhibitor, single point]",
COc1c(C(=O)Nc2ccc(CN3CCOCC3)cc2)cc2ccccc2c1Br,"inconclusive [inhibitor, partial curve, poor fit]",
Cc1c(Cl)ccc2c(C(=O)NCCCn3nccc3C)cc(-c3ccccn3)nc12,"inconclusive [inhibitor, single point]",
CCN(CC)c1ncnc2c1[nH]c1ccccc12,active: 23.1 µM,
CN(C)S(=O)(=O)c1ccc(N=Cc2c(C(F)(F)F)[nH]n(C)c2=O)cc1,inactive,
Cc1c(Cl)cccc1NC(=S)N(CCN(C)C)C(C)c1ccco1 (stereo unspecified),"inconclusive [inhibitor, partial curve, poor fit]",
COc1ccc2c(C)cc(SCC(=O)NCC3CCCO3)nc2c1 (stereo unspecified),inactive,
FC(F)(F)c1cccc(-c2cn[nH]c2C2CCCN(Cc3cccn3-c3ccccn3)C2)c1 (stereo unspecified),inactive,
Cc1ccc(-n2cc(CN(C)Cc3nccn3C)c(-c3cccc(C)c3)n2)cc1,active: 23.1 µM,
CC1(N=Cc2cc(Cl)ccc2O)COP(=O)(NC2CCCC2)OC1 (stereo unspecified),inactive,
CCOCCCn1c(SCC(=O)NC2CCCCC2)nc2ccccc2c1=O,"inconclusive [inhibitor, single point]",
CC(=O)O[C@H]1CC(=O)OC(C)(C)C2CC(=O)[C@]3(C)C(CC[C@@](C)([C@@H](O[C@@H]4O[C@H](CO)[C@@H](O)[C@H](O)[C@H]4O)c4ccoc4)[C@@]34O[C@@H]4C(=O)O)[C@]21C (stereo partly specified),inactive,
COc1ccc(NC(=O)CN(C)C(=O)c2cn(-c3ccccc3)nc2-c2ccc(F)cc2)cc1,"inconclusive [inhibitor, single point]",
O=C(CSc1ccc(-c2cccs2)nn1)N1CCCCCC1,active: 23.1 µM,
CCCCC1=CC2=CC(=O)C(C)(OC(=O)CC)C(=O)C2=CN1CCc1c[nH]c2ccccc12 (stereo unspecified),active: 16.4 µM,
Cc1ccc(C(=O)N2N=C(c3cccc(NS(C)(=O)=O)c3)CC2c2cccs2)cc1 (stereo unspecified),"inconclusive [inhibitor, single point]",
CN(C)Cc1ccc(F)cc1Sc1ccc(Cl)cc1Cl,"inconclusive [inhibitor, single point]",
CC(C)(C)NC(=O)COc1coc(CN2CCN(Cc3ccccc3)CC2)cc1=O,inactive,
CCOC(=O)N1CCN(c2c(NCc3ccccc3OC)c(=O)c2=O)CC1,"inconclusive [inhibitor, single point]",
O=C(C1CCC1)N1CCc2cc(S(=O)(=O)NCCc3ccccc3)ccc21,"inconclusive [inhibitor, single point]",
CCCn1c(C2CCCN2c2nc(-c3ccc(OC)cc3)cs2)nc2ccccc21 (stereo unspecified),"inconclusive [inhibitor, single point]",

Structure (SMILES),Potency,"activity change, negative = growth inhibition"
O=C(NCc1cccnc1)c1csc([C@@H]2C[C@H](O)[C@@H](CO)O2)n1,"inconclusive [inhibitor, single point]",
O=C(NCCc1ccccc1)C1CCC(CNS(=O)(=O)c2cccc3cccnc23)CC1 (stereo unspecified),active: 23.1 µM,
Cc1c(Cl)cccc1NC(=O)N1CCCN(c2nc(-c3ccccc3)ns2)CC1,"inconclusive [inhibitor, single point]",
CC(C)(C)C1CCC(=NNc2ncc(C(F)(F)F)cc2Cl)CC1 (stereo unspecified),inactive,
Cc1ccc(C)c(-n2cc(CN3CCN(C(=O)c4ncn[nH]4)CC3)c(-c3ccccc3)n2)c1,"inconclusive [inhibitor, single point]",
COc1ccc(N(C(=O)/C=C/C(=O)Nc2cc(C)on2)C(C(=O)NC2CCCC2)c2ccccc2C)cc1 (stereo unspecified),active: 20.6 µM,
Cc1nn(-c2ccc(N3CCCC3)nn2)c(C)c1CCC(=O)N1CCN(c2ccccc2F)CC1,"inconclusive [inhibitor, single point]",
CCOC(=O)c1c(-c2ccccc2)nnn1-c1nc(OCC)nc(N2CCCCC2)n1,"inconclusive [inhibitor, single point]",
Cc1ccccc1NC(=O)CCCn1nc(C)c2c(C)n(-c3ccccc3)nc2c1=O,,inconclusive: -32.9% [inhibitor]
COc1ccc(Cl)c2sc(N(CCN(C)C)C(=O)c3ccc4c(c3)OCCO4)nc12,"inconclusive [inhibitor, single point]",
CC(C)OP(=O)(OC(C)C)C1(NS(=O)(=O)c2ccc(Cl)cc2)C=C(Cl)C(=O)C(Cl)=C1,"inconclusive [inhibitor, single point]",
C=CCNC(=O)c1cccn1-c1ccsc1C(=O)OC,"inconclusive [inhibitor, full curve]",
CC1=C(C(=O)OC(C)C)C2(O)C(=O)c3ccccc3C2(O)N1 (stereo unspecified),inactive,
C#CCOCCOCCOCCNc1nc(N2CCN(C(=O)[C@H](CCC(=O)O)n3cc(C(N)Cc4ccc(O)cc4)nn3)CC2)nc(N2CCN(C(=O)[C@H](CCC(=O)O)n3cc(C(N)[C@H](C)CC)nn3)CC2)n1 (stereo partly specified),inactive,
Cc1c(Cl)cccc1Nc1nn2c(=O)c3ccc(C(=O)N(C)Cc4ccccc4)cc3nc2s1,"inconclusive [inhibitor, partial curve]",
COc1ccc(NC(=O)c2cc3c(C)nn(-c4ccccc4)c3s2)c(OC)c1,"inconclusive [inhibitor, partial curve, poor fit]",
Cc1cc(C)cc(-n2c(SCC(=O)NC3CCCCC3)nc3c([nH]c4ccccc43)c2=O)c1,"inconclusive [inhibitor, partial curve, poor fit]",
COC(=O)[C@@]12C[C@@H](CC(=O)NCCCCc3ccccc3)C(=O)N(Cc3ccc4c(c3)OCO4)C1=CCC(C)(C)C2,active: 13 µM,
S=C1NCN(C2CCCCC2)CN1CCc1ccccc1,"inconclusive [inhibitor, partial curve]",
COc1ccc(C)cc1NC(=O)C1CCCN1C(=O)OCc1ccccc1 (stereo unspecified),"inconclusive [inhibitor, single point]",
